# Inconclusive results, whose numbers are uncertain, are shown with a selection of clear calls. Where a call stands in place of a potency, no number is given. For some of these results: A potency beside an inconclusive call is a rough fit, not a confirmed value. Calls of active or inactive are those of the source. Unless noted, the call rests on the fitted dose curve; in most records, active means well fitted curve in the direction sought with a large enough effect in the repeat runs; inconclusive means weak or mixed curves; inactive means no such curve, though single readings can be large; an effect the other way counts as inactive or inconclusive.
# Columns and labels:
# [1] = qHTS assay to identify small molecule agonists of H2AX (AID 1224845; active means well fitted activation curve with a large enough effect in the signal ratio in the repeat runs, not every such curve was filed as active; inconclusive means weak or mixed curves; the % refers to the signal ratio; further: potency means the concentration at half of the fitted maximal effect); conditions: CHO-K1 phospho-H2AX Ser139 HTRF, 3 h; activation (H2AX phosphorylation): at 154 µM (top of the series) unless noted
# Method in brief: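 Phospho-H2AX Ser139 measured by HTRF (ex 320 nm; em 665 and 620 nm) after 24 hr antibody incubation. Compounds, 15 concentrations, 0.76% DMSO, were applied to CHO-K1 cells for 3hr at 37C before lysis.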
# [2] = target: Androgen receptor (Homo sapiens) (UniProt P10275); assay: qHTS assay to identify small molecule antagonists of the androgen receptor (AR) signaling pathway (AID 743035; active means well fitted inhibition curve with a large enough effect in the signal ratio in the repeat runs, not every such curve was filed as active; inconclusive means weak or mixed curves, or effect the other way; inactive means no such curve, though single readings can be large or run the other way; the % refers to the signal ratio; further: potency means the concentration at half of the fitted maximal effect); conditions: HEK293 AR-UAS-bla, R1881-stimulated, beta-lactamase FRET, 16 h; activity change, negative = inhibition: at 58.5 µM (top of the series) unless noted
# Chain of UniProt P10275 (P10275 whole entry, looked up): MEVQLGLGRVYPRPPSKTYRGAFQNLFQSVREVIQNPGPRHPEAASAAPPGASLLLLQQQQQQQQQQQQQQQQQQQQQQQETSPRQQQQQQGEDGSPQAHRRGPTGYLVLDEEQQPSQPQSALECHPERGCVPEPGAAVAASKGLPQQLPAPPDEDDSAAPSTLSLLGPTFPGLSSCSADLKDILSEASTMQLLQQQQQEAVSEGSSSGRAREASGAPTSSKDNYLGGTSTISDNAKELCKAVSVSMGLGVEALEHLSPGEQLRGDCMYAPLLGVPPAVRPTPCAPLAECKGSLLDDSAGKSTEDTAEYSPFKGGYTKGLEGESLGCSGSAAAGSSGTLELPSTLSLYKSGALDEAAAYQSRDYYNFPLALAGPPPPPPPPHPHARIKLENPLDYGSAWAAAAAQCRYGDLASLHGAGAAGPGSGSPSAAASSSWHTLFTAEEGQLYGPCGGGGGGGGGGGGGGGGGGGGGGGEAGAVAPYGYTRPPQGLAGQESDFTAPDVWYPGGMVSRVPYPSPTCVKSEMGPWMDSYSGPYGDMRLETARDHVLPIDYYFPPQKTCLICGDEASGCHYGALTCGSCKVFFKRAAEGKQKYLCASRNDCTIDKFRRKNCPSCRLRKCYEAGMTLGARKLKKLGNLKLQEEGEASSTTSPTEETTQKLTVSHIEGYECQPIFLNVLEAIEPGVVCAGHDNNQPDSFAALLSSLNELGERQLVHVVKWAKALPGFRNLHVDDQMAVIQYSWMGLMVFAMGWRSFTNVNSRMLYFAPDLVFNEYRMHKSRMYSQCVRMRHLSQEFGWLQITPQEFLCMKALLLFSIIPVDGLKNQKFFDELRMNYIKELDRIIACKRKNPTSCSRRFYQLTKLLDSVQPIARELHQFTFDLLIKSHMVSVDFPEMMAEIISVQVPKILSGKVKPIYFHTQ
# Method in brief: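 Beta-lactamase FRET read (2 h RT incubation with LiveBLAzer B/G) following 16 h of compound plus R1881 treatment of AR-UAS-bla HEK293 cells, which had been pre-incubated 4 h at 37C.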
# [3] = qHTS assay to identify small molecule antagonists of the thyroid receptor (TR) signaling pathway (AID 743065); further: nearly all actives have a fitted effect of over 55% in size; further: potency means the concentration at half of the fitted maximal effect
# Method in brief: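 Antagonism measured as loss of luciferase signal in GH3 cells stably carrying a TRE-luciferase reporter, co-treated with compound and T3 (1 nM final) for 23.5 h at 37 C. Viability was read in the same well by CellTiter-Fluor.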
# [4] = qHTS RealTime-Glo MT Cell Viability Assay in HEK293 cells - 40 hour (AID 1224874); conditions: RealTime-Glo luminescence; max response: active compounds read low; further: nearly all actives have a fitted effect of over 50% in size
# Method in brief: (§1)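 Viable HEK293 cells reduce a cell-permeant prosubstrate; the product diffuses out and is consumed by NanoLuc in the medium to give light. Compounds went in after a 5 h incubation and plates were read over the treatment course.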
# [5] = qHTS RealTime-Glo MT Cell Viability Assay in HEK293 cells - 16 hour (AID 1224872); further: nearly all actives have a fitted effect of over 50% in size; further: potency means the concentration at half of the fitted maximal effect; on activity change, negative = cytotoxicity: top concentration of the series differs between compounds
# Method in brief: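 Homogeneous bioluminescent viability format in HEK293 cells (600 cells/well). Following 5 h at 37 C/5% CO2, 23 nL compound was pintooled; the signal was measured repeatedly during 40 h incubation.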
# [6] = A CellTox Green Cytotoxicity Assay to monitor cytotoxicity in HepG2 cells - 24 hour (AID 1224878); further: nearly all actives have a fitted effect of over 45% in size; further: potency means the concentration at half of the fitted maximal effect
# Method in brief: (§2)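 Using 1536-well format, dye-containing HepG2 suspension was seeded, allowed 5 h at 37 C/5% CO2, dosed by pintool with compounds, positive and negative controls, and imaged for fluorescence across 40 h.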
# [7] = qHTS RealTime-Glo MT Cell Viability Assay in HEK293 cells - 8 hour (AID 1224887); further: nearly all actives have a fitted effect of over 50% in size; further: potency means the concentration at half of the fitted maximal effect; on activity change, negative = cytotoxicity: top concentration of the series differs between compounds
# Method in brief: as §1
# [8] = qHTS assay to identify small molecule antagonists of the peroxisome proliferator-activated receptor gamma (PPARg) signaling pathway - cell viability counter screen (AID 743194); conditions: PPARg-bla HEK293H viability, CellTiter-Glo luminescence, 17 h, co-treated with 50 nM rosiglitazone; activity change, negative = cytotoxicity: at 62.6 µM (top of the series) unless noted; further: nearly all actives have a fitted effect of over 55% in size; further: potency means the concentration at half of the fitted maximal effect
# Method in brief: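 Viability was measured as CellTiter-Glo luminescence in GeneBLAzer PPARg UAS-bla HEK293H cells. These cells had been exposed 17 h at 37 C to compounds together with rosiglitazone at 50 nM final, with the beta-lactamase readout taken in the same wells.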
# [9] = qHTS assay to identify small molecule antagonists of the progesterone receptor (PR) signaling pathway - cell viability counter screen (AID 1346798); further: nearly all actives have a fitted effect of over 50% in size; further: potency means the concentration at half of the fitted maximal effect;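 on activity change, negative = cytotoxicity: HEK293T PR-UAS-bla cells stimulated with the agonist R5020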
# Method in brief: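 HEK293T PR-UAS-bla, 2% charcoal-stripped FBS; 4 hr pre-plate; cpd + R5020, 16 h 37C; LiveBLAzer read first; then CellTiter-Glo 30 min RT, luminescence.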
# [10] = qHTS assay to identify small molecule agonists of H2AX - cell viability counter screen (AID 1224847; calls by dose curve; further: potency means the concentration at half of the fitted maximal effect; nearly all actives have a fitted effect of over 30% in size)
# Method in brief: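 Cells plated first: CHO-K1, 1000 per well in 10% FBS medium, incubated overnight at 37C. Then 15-point compound titration added (final DMSO 0.76%) for 3 hr. Finally CellTiter-Glo added and luminescence read.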
# [11] = Caspase-3/7 induction in CHO-K1 cells by small molecules, qHTS cell viability counter screen (AID 1346979); further: nearly all actives have a fitted effect of over 35% in size; further: potency means the concentration at half of the fitted maximal effect
# Method in brief: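 Cells (CHO-K1, wild type) are plated at 1,500 per well and incubated 5hr. Test compounds in DMSO are then pinned in, followed by 16hr at 37C and 5% CO2. Viability is read by CellTiter-Fluor fluorescence after 1hr.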
# [12] = target: Bile acid receptor (Homo sapiens) (UniProt Q96RI1); assay: qHTS assay to identify small molecule antagonists of the farnesoid-X-receptor (FXR) signaling pathway (AID 743217; active means well fitted inhibition curve with a large enough effect in the signal ratio in the repeat runs, not every such curve was filed as active; inconclusive means weak or mixed curves, or effect the other way; inactive means no such curve, though single readings can be large or run the other way; the % refers to the signal ratio); conditions: HEK293T FXR-UAS-bla, beta-lactamase ratio, CDCA-stimulated, 16 h; activity change, negative = inhibition: at 62.6 µM (top of the series) unless noted
# Chain of UniProt Q96RI1 (Q96RI1 whole entry, looked up): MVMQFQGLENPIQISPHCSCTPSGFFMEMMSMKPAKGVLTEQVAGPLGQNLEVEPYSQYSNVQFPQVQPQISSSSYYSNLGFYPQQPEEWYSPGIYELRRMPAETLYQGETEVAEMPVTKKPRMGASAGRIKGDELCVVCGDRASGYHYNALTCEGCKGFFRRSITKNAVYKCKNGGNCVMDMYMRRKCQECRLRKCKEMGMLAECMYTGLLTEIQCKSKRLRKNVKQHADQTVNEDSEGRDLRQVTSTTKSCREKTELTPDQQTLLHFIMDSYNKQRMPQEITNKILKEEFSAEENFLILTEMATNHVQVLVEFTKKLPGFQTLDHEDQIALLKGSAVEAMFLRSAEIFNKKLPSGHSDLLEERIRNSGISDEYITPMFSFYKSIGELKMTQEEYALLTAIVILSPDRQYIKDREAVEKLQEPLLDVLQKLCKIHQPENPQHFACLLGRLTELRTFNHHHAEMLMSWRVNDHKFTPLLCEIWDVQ
# Method in brief: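 GeneBLAzer FXR-UAS-bla HEK 293T, CDCA-stimulated (50 uM final). Compound treatment 16 h, 37 °C. Detection: beta-lactamase cleavage of B/G FRET substrate, fluorescence.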
# [13] = target: Vitamin D3 receptor (Homo sapiens) (UniProt P11473); assay: qHTS assay to identify small molecule agonists of the vitamin D receptor (VDR) signaling pathway (AID 743222; calls by dose curve); conditions: HEK293T VDR-UAS-bla, beta-lactamase FRET ratio, 16 h; activation: at 63.5 µM (top of the series) unless noted
# Chain of UniProt P11473 (P11473 whole entry, looked up): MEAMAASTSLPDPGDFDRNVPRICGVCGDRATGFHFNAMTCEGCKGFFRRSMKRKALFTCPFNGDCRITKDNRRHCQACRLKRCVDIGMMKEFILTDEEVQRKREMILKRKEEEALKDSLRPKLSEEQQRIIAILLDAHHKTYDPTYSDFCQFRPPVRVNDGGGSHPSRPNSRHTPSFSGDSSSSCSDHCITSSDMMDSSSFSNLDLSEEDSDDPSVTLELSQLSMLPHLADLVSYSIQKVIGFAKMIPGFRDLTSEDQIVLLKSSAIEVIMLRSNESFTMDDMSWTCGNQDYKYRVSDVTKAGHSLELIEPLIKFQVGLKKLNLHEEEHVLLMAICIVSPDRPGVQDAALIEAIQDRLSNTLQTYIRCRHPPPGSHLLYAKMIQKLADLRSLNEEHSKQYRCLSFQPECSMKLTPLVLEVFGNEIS
# Method in brief: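 In VDR-bla cells, compound-induced beta-lactamase expression is quantified by FRET substrate fluorescence. Treatment lasts 16 h at 37C; substrate develops 2 h at room temperature.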
# [14] = target: Peroxisome proliferator-activated receptor gamma (Homo sapiens) (UniProt P37231); assay: qHTS assay to identify small molecule agonists of the peroxisome proliferator-activated receptor gamma (PPARg) signaling pathway (AID 743094; active means well fitted activation curve with a large enough effect in the signal ratio in the repeat runs, not every such curve was filed as active; inconclusive means weak or mixed curves, or effect the other way; inactive means no such curve, though single readings can be large or run the other way; the % refers to the signal ratio); conditions: HEK293H PPARg-UAS-bla, beta-lactamase FRET ratio, 17 h; activation: at 57 µM (top of the series) unless noted
# Chain of UniProt P37231 (P37231 whole entry, looked up): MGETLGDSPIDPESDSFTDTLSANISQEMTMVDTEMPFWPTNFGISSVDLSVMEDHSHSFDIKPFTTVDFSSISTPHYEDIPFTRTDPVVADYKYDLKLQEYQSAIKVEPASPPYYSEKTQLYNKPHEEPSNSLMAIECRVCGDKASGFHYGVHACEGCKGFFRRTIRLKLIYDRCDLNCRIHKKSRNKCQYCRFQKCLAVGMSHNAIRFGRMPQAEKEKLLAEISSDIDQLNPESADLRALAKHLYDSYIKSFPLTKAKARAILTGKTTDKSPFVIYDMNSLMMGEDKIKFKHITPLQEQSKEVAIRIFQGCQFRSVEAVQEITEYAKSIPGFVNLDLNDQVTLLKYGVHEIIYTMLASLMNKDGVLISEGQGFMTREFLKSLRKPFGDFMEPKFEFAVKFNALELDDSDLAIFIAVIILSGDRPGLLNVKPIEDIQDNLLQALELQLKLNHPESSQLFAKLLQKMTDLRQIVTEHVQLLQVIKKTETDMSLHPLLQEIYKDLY
# Method in brief: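 Compounds dissolved in DMSO were added to PPARg UAS-bla HEK293H cells for 17 h at 37C, and reporter expression was quantified by fluorescence intensity after 1 h with LiveBLAzer B/G FRET substrate.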
# [15] = A CellTox Green Cytotoxicity Assay to monitor cytotoxicity in HepG2 cells - 40 hour (AID 1224879); further: nearly all actives have a fitted effect of over 40% in size; further: potency means the concentration at half of the fitted maximal effect
# Method in brief: as §2
# [16] = qHTS assay to identify small molecule antagonists of the androgen receptor (AR) signaling pathway - cell viability counter screen (AID 743033; further: nearly all actives have a fitted effect of over 45% in size); conditions: AR-bla HEK293 viability, CellTiter-Glo luminescence, 16 h; activity change, negative = cytotoxicity: at 58.5 µM (top of the series) unless noted
# [17] = qHTS assay to identify small molecule agonists of the vitamin D receptor (VDR) signaling pathway - cell viability counter screen (AID 743224); further: nearly all actives have a fitted effect of over 50% in size; further: potency means the concentration at half of the fitted maximal effect
# Method in brief: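 Plated VDR-bla cells (4 h, 37C) received compound, incubated 16 h, then LiveBLAzer substrate 2 h RT; CellTiter-Glo added afterwards, luminescence read at 30 min.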
# [18] = target: Thyrotropin receptor (Homo sapiens) (UniProt P16473); assay: qHTS assay to identify small molecule antagonists of the thyroid stimulating hormone receptor (TSHR) signaling pathway (AID 1259385; calls by dose curve; further: nearly all actives have a fitted effect of over 20% in size); conditions: TSHR-HEK293 cAMP HTRF, TSH-stimulated antagonist mode; activity change, negative = inhibition: at 92.4 µM (top of the series) unless noted
# Chain of UniProt P16473 (P16473 whole entry, looked up): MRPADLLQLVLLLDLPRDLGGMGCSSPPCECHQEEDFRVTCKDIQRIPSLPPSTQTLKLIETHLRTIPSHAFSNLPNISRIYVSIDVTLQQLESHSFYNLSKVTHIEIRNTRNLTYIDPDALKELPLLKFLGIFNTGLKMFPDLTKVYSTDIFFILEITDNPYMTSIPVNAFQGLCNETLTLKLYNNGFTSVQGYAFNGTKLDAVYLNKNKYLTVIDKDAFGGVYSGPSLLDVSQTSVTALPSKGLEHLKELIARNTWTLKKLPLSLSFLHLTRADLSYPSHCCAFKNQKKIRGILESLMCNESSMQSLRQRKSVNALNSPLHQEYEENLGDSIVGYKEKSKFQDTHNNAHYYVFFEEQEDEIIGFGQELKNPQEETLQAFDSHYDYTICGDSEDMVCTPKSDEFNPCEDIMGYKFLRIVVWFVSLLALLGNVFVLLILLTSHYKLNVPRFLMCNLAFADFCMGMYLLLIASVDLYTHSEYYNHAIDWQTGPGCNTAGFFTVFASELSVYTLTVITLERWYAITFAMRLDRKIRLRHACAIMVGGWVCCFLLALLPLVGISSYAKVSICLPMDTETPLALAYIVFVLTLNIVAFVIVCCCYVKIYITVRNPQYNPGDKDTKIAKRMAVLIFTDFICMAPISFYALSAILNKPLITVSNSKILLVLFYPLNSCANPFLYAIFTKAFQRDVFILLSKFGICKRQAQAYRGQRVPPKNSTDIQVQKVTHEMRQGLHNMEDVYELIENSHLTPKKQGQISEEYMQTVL
# Method in brief: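 Antagonist mode: compound-treated TSHR-expressing HEK293 cells were stimulated with 1.5 ng/mL TSH (final) in presence of Ro20-1724 for 30 min at RT. HTRF cAMP detection after 1 h; each compound tested at 15 concentrations, triplicate.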
# [19] = Caspase-3/7 induction in HepG2 cells by small molecules, qHTS cell viability counter screen (AID 1346981); further: nearly all actives have a fitted effect of over 30% in size
# Method in brief: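 Viability determined by CellTiter-Fluor fluorescence in HepG2 wells also used for the luminescent Caspase-Glo 3/7 read. Compounds were present for 16 hr at 37 C, 5% CO2 before reagent addition.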
# Tags describe the fitted curve by direction and shape or compound fluorescence and quenching.
structure (smiles),measurement,setting,value
CCCCCCCC1CCCC1=O (centres undefined),Potency,[1],inactive
O=CN1CCOCC1,"activity change, negative = inhibition",[2],inconclusive: -1.53%
same,Potency,[3],inactive
same,max response,[4],inactive: 10.7%
CCO[Si](CCCS)(OCC)OCC,Potency,[5],"inconclusive: 61.6 µM [rising, single point]"
same,Potency,[6],inactive
same,Potency,[7],"inconclusive: 61.6 µM [rising, partial curve, poor fit]"
CC(O)C(CO)C(C)O (centres undefined),Potency,[8],"inconclusive: 0.0197 µM [cytotoxic, full curve, poor fit]"
same,Potency,[9],"inconclusive: 24.6 µM [rising, partial curve, poor fit]"
CCCCOCCOC(=O)COc1cc(Cl)c(Cl)cc1Cl,Potency,[10],"inconclusive: 1.6 µM [cytotoxic, single point]"
Cc1cccc(N)n1,Potency,[1],inactive
same,Potency,[11],"inconclusive: 32.6 µM [rising, partial curve, poor fit]"
CC(C)OCC1CO1 (centres undefined),Potency,[12],inactive
same,Potency,[13],inactive
same,Potency,[5],inactive
same,Potency,[9],"inconclusive: 68.2 µM [cytotoxic, single point]"
C/C(=N\O)c1ccc(OCC(=O)N2CCCCC2)cc1,Potency,[2],inactive
same,Potency,[14],inactive
same,Potency,[8],inactive
O=C(O)c1cc(Cl)cc([N+](=O)[O-])c1Cl,Potency,[2],inactive
same,Potency,[8],inactive
same,max response,[4],inactive: 21%
CCCCCCC1CCC(=O)O1 (centres undefined),max response,[4],inactive: 4.76%
same,Potency,[15],inactive
same,Potency,[7],inactive
CC(C)CC(O)Cc1ccccc1 (centres undefined),Potency,[16],inactive
same,Potency,[6],inactive
same,Potency,[7],inactive
CC(C)(C)C(=O)NCCCC(=O)O,Potency,[8],inactive
CC1OC1C1CCC2(C)OC2C1 (centres undefined),"activity change, negative = cytotoxicity",[8],inconclusive: -1.56%
same,max response,[4],inactive: 1.23%
same,Potency,[6],"inconclusive: 21.9 µM [activator, single point]"
same,Potency,[15],"inconclusive: 21.9 µM [activator, single point]"
CCCCN1C=CN(C)C1,Potency,[17],"inconclusive: 3.93 µM [cytotoxic, partial curve, poor fit]"
same,"activity change, negative = cytotoxicity",[5],inactive: 5.82% [at 15.8 µM]
CC(C)(C)OC(=O)c1ccc(O)cc1,Potency,[2],"inconclusive: 12.3 µM [rising, full curve]"
same,Potency,[8],inactive
same,Potency,[6],"inconclusive: 61.6 µM [activator, single point]"
same,Potency,[15],"inconclusive: 61.6 µM [activator, single point]"
same,Potency,[18],inactive
same,Potency,[19],inactive
CC(C)NC(=O)NC(C)C,Potency,[12],inactive
same,Potency,[13],inactive
same,Potency,[10],"inconclusive: 1.79 µM [cytotoxic, single point]"
O=C(O)c1ccc(OCCN2CCCCC2)cc1,Potency,[13],inactive
same,Potency,[5],inactive
same,Potency,[19],inactive
N=C(N)c1ccc2cc(OC(=O)c3ccc(N=C(N)N)cc3)ccc2c1,Potency,[13],inactive
same,Potency,[17],inactive
same,max response,[4],inactive: 1.38%
Nc1cc(C(=O)O)c(O)c(S(=O)(=O)O)c1,Potency,[14],inactive
same,Potency,[1],"inconclusive: 62.7 µM [falling, partial curve]"
same,"activity change, negative = inhibition",[18],inconclusive: -8.73%
same,Potency,[9],inactive
same,Potency,[11],"inconclusive: 47.9 µM [rising, partial curve]"
Cc1ccc(C)c(S(=O)(=O)O)c1,Potency,[1],inactive
same,Potency,[15],inactive
same,Potency,[18],inactive
same,Potency,[11],inactive
COc1ccc(OC)c(Cl)c1,"activity change, negative = inhibition",[2],inconclusive: -0.0268%
same,Potency,[14],inactive
same,Potency,[17],inactive
NC12CC3CC(CC(C3)C1)C2,Potency,[3],"inconclusive: 33.5 µM [inhibitor, single point]"
same,Potency,[19],inactive

# Reference: PubChem BioAssay (Tox21)
